# Experimental data: the supplement of paper PMC4967469
# Compound: NC1(c2ccc(-c3nc4ccn5c(=O)[nH]nc5c4cc3-c3ccccc3)cc2)CCC1 [MK-2206]
# Assay: Viability of human cancer cell lines after 72 h of drug (GDSC screen)
# Description: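 Human cancer cell lines in 384-well plates, medium with 10% serum, drug for 72 h over a 256-fold dose range (nine 2-fold or five 4-fold steps up to the top dose). Adherent lines were fixed and stained with the nucleic acid dye Syto60, suspension lines read with resazurin; signal relative to control wells, capped at 0 and 100%. One two-parameter sigmoid per drug and line, fitted in a mixed model over all curves with the slope shared within a line.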
Cell Line,AUC,IC50 [nM]
"ESO26 (oesophagus, adherent, top dose 4 µM)",0.801,1830
"ESO51 (oesophagus, semi-adherent, top dose 4 µM)",0.866,> 4000
"ESS-1 (endometrium, adherent, top dose 4 µM)",0.912,> 4000
"ETK-1 (biliary tract, adherent, top dose 4 µM)",0.852,3760
"EVSA-T (breast, adherent, top dose 4 µM)",0.37,116
"EW-1 (Ewing sarcoma, semi-adherent, top dose 4 µM)",0.921,> 4000
"EW-3 (Ewing sarcoma, adherent, top dose 4 µM)",0.827,2920
"EW-7 (Ewing sarcoma, semi-adherent, top dose 4 µM)",0.941,> 4000
"EW-11 (Ewing sarcoma, adherent, top dose 4 µM)",0.836,3830
"EW-13 (Ewing sarcoma, suspension, top dose 4 µM)",0.944,> 4000
"EW-16 (Ewing sarcoma, adherent, top dose 4 µM)",0.762,1490
"EW-18 (Ewing sarcoma, suspension, top dose 4 µM)",0.658,710
"EW-22 (Ewing sarcoma, adherent, top dose 4 µM)",0.864,3260
"EW-24 (Ewing sarcoma, semi-adherent, top dose 4 µM)",0.992,> 4000
"EoL-1-cell (haematopoietic neoplasm, suspension, top dose 4 µM)",0.919,> 4000
"FADU (head and neck, adherent, top dose 4 µM)",0.917,> 4000
"FLO-1 (oesophagus, adherent, top dose 4 µM)",0.657,835
"FTC-133 (thyroid, adherent, top dose 4 µM)",0.93,> 4000
"FU97 (stomach, adherent, top dose 4 µM)",0.593,453
"FU-OV-1 (ovary, adherent, top dose 4 µM)",0.913,> 4000
"Farage (B-cell lymphoma, suspension, top dose 4 µM)",0.629,528

Cell Line,AUC,IC50 [nM]
"G-292 Clone A141B1 (osteosarcoma, adherent, top dose 4 µM)",0.96,> 4000
"G-361 (melanoma, adherent, top dose 4 µM)",0.908,> 4000
"G-401 (kidney, adherent, top dose 4 µM)",0.702,984
"G-402 (soft tissue, adherent, top dose 4 µM)",0.763,1920
"GA-10 (Burkitt lymphoma, suspension, top dose 4 µM)",0.647,594
"GAK (melanoma, adherent, top dose 4 µM)",0.981,> 4000
"GAMG (glioma, adherent, top dose 4 µM)",0.753,1390
"GB-1 (glioma, adherent, top dose 4 µM)",0.861,> 4000
"GCIY (stomach, adherent, top dose 4 µM)",0.922,> 4000
"GDM-1 (acute myeloid leukaemia, suspension, top dose 4 µM)",0.97,> 4000
"GI-1 (glioma, adherent, top dose 4 µM)",0.934,> 4000
"GI-ME-N (neuroblastoma, adherent, top dose 4 µM)",0.924,> 4000
"GMS-10 (glioma, adherent, top dose 4 µM)",0.947,> 4000
"GOTO (neuroblastoma, adherent, top dose 4 µM)",0.966,> 4000
"GR-ST (lymphoblastic leukaemia, suspension, top dose 4 µM)",0.817,2860
"GRANTA-519 (B-cell lymphoma, suspension, top dose 4 µM)",0.963,> 4000
"GT3TKB (stomach, adherent, top dose 2 µM)",0.987,> 2000
"H4 (glioma, adherent, top dose 4 µM)",0.845,2840
"H9 (lymphoid neoplasm, suspension, top dose 4 µM)",0.991,> 4000
"H290 (mesothelioma, adherent, top dose 4 µM)",0.921,> 4000
"H2369 (mesothelioma, adherent, top dose 4 µM)",0.802,2040

Cell Line,AUC,IC50 [nM]
"H2373 (mesothelioma, adherent, top dose 4 µM)",0.681,920
"H2461 (mesothelioma, adherent, top dose 4 µM)",0.838,3740
"H2591 (mesothelioma, adherent, top dose 2 µM)",0.95,> 2000
"H2595 (mesothelioma, adherent, top dose 4 µM)",0.803,2970
"H2731 (mesothelioma, adherent, top dose 4 µM)",0.799,2250
"H2795 (mesothelioma, adherent, top dose 4 µM)",0.864,3410
"H2869 (mesothelioma, adherent, top dose 4 µM)",0.941,> 4000
"H3118 (head and neck, adherent, top dose 4 µM)",0.808,2300
"H3255 (lung adenocarcinoma, adherent, top dose 4 µM)",0.928,> 4000
"H-EMC-SS (chondrosarcoma, adherent, top dose 4 µM)",0.548,352
"HA7-RCC (kidney, adherent, top dose 4 µM)",0.756,1500
"HAL-01 (lymphoblastic leukaemia, suspension, top dose 4 µM)",0.508,262
"HARA (lung squamous cell carcinoma, adherent, top dose 4 µM)",0.749,1490
"HC-1 (hairy cell leukaemia, suspension, top dose 4 µM)",0.972,> 4000
"HCC38 (breast, adherent, top dose 4 µM)",0.986,> 4000
"HCC202 (breast, adherent, top dose 4 µM)",0.854,> 4000
"HCC1143 (breast, adherent, top dose 4 µM)",0.931,> 4000
"HCC1187 (breast, suspension, top dose 4 µM)",0.882,3880
"HCC1395 (breast, adherent, top dose 4 µM)",0.786,2120
"HCC1419 (breast, adherent, top dose 4 µM)",0.61,568
"HCC1428 (breast, adherent, top dose 4 µM)",0.963,> 4000

Cell Line,AUC,IC50 [nM]
"HCC1500 (breast, adherent, top dose 4 µM)",0.988,> 4000
"HCC1569 (breast, adherent, top dose 4 µM)",0.902,> 4000
"HCC1806 (breast, adherent, top dose 4 µM)",0.93,> 4000
"HCC1937 (breast, adherent, top dose 4 µM)",0.847,3640
"HCC1954 (breast, adherent, top dose 4 µM)",0.907,> 4000
"HCC2157 (breast, suspension, top dose 4 µM)",0.541,325
"HCC2218 (breast, suspension, top dose 4 µM)",0.869,> 4000
"HCC-15 (lung squamous cell carcinoma, adherent, top dose 4 µM)",0.857,> 4000
"HCC-44 (lung adenocarcinoma, adherent, top dose 2 µM)",0.711,484
"HCC-56 (large intestine, adherent, top dose 4 µM)",0.946,> 4000
"HCC-78 (lung adenocarcinoma, adherent, top dose 4 µM)",0.871,> 4000
"HCC-366 (non-small cell lung carcinoma, adherent, top dose 4 µM)",0.89,> 4000
"HCC-827 (lung adenocarcinoma, adherent, top dose 4 µM)",0.969,> 4000
"HCT-15 (large intestine, adherent, top dose 4 µM)",0.761,1500
"HD-MY-Z (Hodgkin lymphoma, adherent, top dose 4 µM)",0.97,> 4000
"HDLM-2 (Hodgkin lymphoma, suspension, top dose 4 µM)",0.951,> 4000
"HDQ-P1 (breast, adherent, top dose 4 µM)",0.954,> 4000
"HEC-1 (endometrium, adherent, top dose 4 µM)",0.908,> 4000
"HGC-27 (stomach, adherent, top dose 4 µM)",0.652,613
"HH (T-cell leukaemia, suspension, top dose 4 µM)",0.497,245
"HL-60 (acute myeloid leukaemia, suspension, top dose 4 µM)",0.832,2190

# Lines with a small IC50 respond at low doses; a fit beyond the top or the lowest dose is shown as a bound at that dose. The AUC spans the tested range (256-fold, ending at the top dose) of the same fit; values near 1 show little effect.
